Data published in the RNAGym collection of RNA variant scans (doi:10.7554/elife.90254).
Read counts are not given, so values of variants with three or more changes are uncertain.

B1: LINE1-full (parent)
chain: UACGUAGGUGGUUUUCCCCUGAUAGUGCUAAGGGGGCCUGGAAGUUUGGACUGGGCAGAGCUCAACACAGCGUGGCAAAGUGGCUGUGGCUAGACUGCCUCUCUGGAUUCCUCGUCACUCAGCAGGGCAUCUCUGAGAGAAAUGCC

Variants of: B1
Assay: self-cleavage, relative activity (ratio to wild type); higher = more cleavage; in vitro, sequencing; the parent is a self-cleaving ribozyme
C3U U9A A142G gave a self-cleavage of 0.92.
For U20C U26C A67G A79G A138G, the self-cleavage was 0.
In the case of U73G A79G U112C, the self-cleavage is reported as 1.58.
Work on G53A A78G A141G yielded a self-cleavage of 1.23.
G7A U26A U39C A50U gave a self-cleavage of 0.36.
U14C U29C U62C U73A showed a self-cleavage of 0.32.
With U85C U96A A117U A141G the self-cleavage was 0.07.
For U12C U20C G25U A42G U73A A79G A136G, the self-cleavage was 2.04.
A31G G35U U96C gave a self-cleavage of 0.15.
Work on U46A A57U U85C A94G A121U yielded a self-cleavage of 0.08.
Work on U46A A50G U87A A117G yielded a self-cleavage of 0.06.
Work on A117G A129U U130C A142G yielded a self-cleavage of 2.16.
G41U U108C U112C showed a self-cleavage of 1.17.
Variant U9C U15A U96C has a self-cleavage of 0.49.
With U39C A65U U115C C118U the self-cleavage was 0.18.
With U12C U13C U20G G34U U132C the self-cleavage was 0.88.
Variant U14C C18U U130C has a self-cleavage of 0.94.
With A31G G33A G49A A78G A124U U132C the self-cleavage was 0.71.
In the case of C99U G122A U132C U143A, the self-cleavage is reported as 0.46.
Work on U104A U119A C131U yielded a self-cleavage of 1.54.
With A24G A65G A94G C95A the self-cleavage was 0.12.
Work on U52A U87C U96C A107G yielded a self-cleavage of 0.
U13C U45C C66U gave a self-cleavage of 0.06.
U14C C38U A43G C90U U96C U102C A142G showed a self-cleavage of 0.11.
Work on U20C U62C A142G yielded a self-cleavage of 0.09.
Work on A31U U100C U109A U115C yielded a self-cleavage of 2.12.
For U29C G40A A43G A57G A64U, the self-cleavage was 0.37.
U12A U15A U20C gave a self-cleavage of 1.06.
U20C U39A C111U U132C gave a self-cleavage of 1.74.
Variant U47A U73C U81C has a self-cleavage of 1.41.
A42U G106C U112G U132A gave a self-cleavage of 1.92.
Work on U20C A42U U115A yielded a self-cleavage of 0.82.
G11C U45C A138G gave a self-cleavage of 0.82.
For U47C U85C U104C A138G G144A, the self-cleavage was 0.31.
A31U A64G A79G A141G showed a self-cleavage of 0.12.
For U13C A24U A30G A57G A92G U109A, the self-cleavage was 2.12.
U12C U15C U87A A117U gave a self-cleavage of 0.
With U20C G25A U39A A50G A65G the self-cleavage was 0.
For U12C U73A U91C, the self-cleavage was 0.44.
For A65G C120U A129U U132C, the self-cleavage was 0.05.
With U14A U26A U52C G125A A140C the self-cleavage was 0.18.
For U13C U47A U119C A136G U143C, the self-cleavage was 1.37.
For G48U A136G A142C, the self-cleavage was 2.1.
A69U G80A U132C gave a self-cleavage of 0.
For U26G C76U A107G U143A, the self-cleavage was 2.47.
Variant A30G G34U G41A U46G A124C has a self-cleavage of 1.84.
Work on G53A A78U A136G C146U yielded a self-cleavage of 2.22.
For A2G C90U G135A, the self-cleavage was 0.22.
In the case of U26C G34A A79G A142G, the self-cleavage is reported as 0.16.
In the case of A129G U132C A140G, the self-cleavage is reported as 1.84.
Variant U45A G80A A141G has a self-cleavage of 1.85.
A77U U91A U119C gave a self-cleavage of 0.58.
A24U A43G U45A U85C U108A C133U gave a self-cleavage of 0.34.
Variant U45C A77U U143C has a self-cleavage of 1.39.
Variant U9C U15C U45C has a self-cleavage of 1.48.
A77U A94C U100C U102C gave a self-cleavage of 0.12.
With U9A U23C A57U the self-cleavage was 0.02.
With U15C A77U A129U the self-cleavage was 1.2.
In the case of U26C A69G G88A A138G, the self-cleavage is reported as 0.07.
In the case of U1C A24G G40U G55C G72A A78U, the self-cleavage is reported as 0.
In the case of U45C U91G U130C, the self-cleavage is reported as 0.
In the case of A67U U85C A92U U130C, the self-cleavage is reported as 0.
U9A A22U A64U C113U showed a self-cleavage of 0.41.
With U1C A6G A92G the self-cleavage was 0.16.
In the case of A59U U85A A107G, the self-cleavage is reported as 0.13.
With U23A U45C U62A U87C the self-cleavage was 0.
Variant U109C U119C U143C has a self-cleavage of 1.67.
A69G U85C A94G U143G showed a self-cleavage of 0.
For A77U A92G U100C U130C, the self-cleavage was 0.
With A24G U46C A141G U143A the self-cleavage was 1.25.
For U14C A64G U109C, the self-cleavage was 0.31.
For A22G U26A A124G, the self-cleavage was 0.45.
A79G U104A A142U gave a self-cleavage of 0.67.
In the case of G27C A43G A64G U115A, the self-cleavage is reported as 0.3.
In the case of U12C A79G A129G, the self-cleavage is reported as 1.23.
U15C U47A U115C G144A showed a self-cleavage of 1.59.
With U15C U62A A79G A94U U104A the self-cleavage was 0.
With A22G A24U C90A A121U U132C A142G the self-cleavage was 0.17.
U20A U47C A65G A142G showed a self-cleavage of 0.13.
With U15C U81C A141C the self-cleavage was 2.04.
Variant U23C G54A A67U A124U has a self-cleavage of 0.02.
For U47C U62C C68U, the self-cleavage was 0.03.
With U15C U23C A30U G34A U62C G72C G122A the self-cleavage was 0.04.
For A121U U134G A136G, the self-cleavage was 0.8.
C19U A50G A142G gave a self-cleavage of 0.86.
A22G U47C U52C showed a self-cleavage of 0.35.
In the case of G35U U39A G82A, the self-cleavage is reported as 1.45.
Variant U15C A136U A140G has a self-cleavage of 1.68.
Variant A22G A50G A79G has a self-cleavage of 0.
With U1C U47A U62C U112A A124U the self-cleavage was 0.
U14C A42G U62A A65G U102A showed a self-cleavage of 0.
U12C U13C U112C gave a self-cleavage of 1.28.
In the case of U1A U20C C56G U108C, the self-cleavage is reported as 0.28.
For U9C U15C G49U A50U A79G A136U, the self-cleavage was 0.85.
For A64U G86A A129G, the self-cleavage was 0.07.
In the case of U73C A129G U132C, the self-cleavage is reported as 1.15.
With U119C G125U U132C A138G the self-cleavage was 1.47.
For U45C A59G U62A A64G C145A, the self-cleavage was 0.
With U14C U45C A67U U87A U130C the self-cleavage was 0.49.
U39A A78U A121C U134A showed a self-cleavage of 1.99.
With C37U U73A A78G G89A A121G U132C the self-cleavage was 0.06.
U1C C71G U85C A141G gave a self-cleavage of 0.06.
Variant U15A U109C G127A has a self-cleavage of 0.58.
Variant A31U A67U U130G has a self-cleavage of 0.06.
Variant U14C A78U U109C U134C has a self-cleavage of 1.92.
For U12G U14C A92G A107G, the self-cleavage was 0.
U23A C113A A142U showed a self-cleavage of 0.39.
For A31U A57G G144A, the self-cleavage was 0.93.
With A50U A77U U134C the self-cleavage was 0.71.
A69G G70U U87A U112C gave a self-cleavage of 0.01.
U26A U52A U81A U87C showed a self-cleavage of 0.21.
For U45A U46C U87A A138G, the self-cleavage was 0.14.
With A31U U39G A94G the self-cleavage was 0.
A6U A94U U130C showed a self-cleavage of 0.36.
A31U A136G A141G gave a self-cleavage of 1.24.
U52C U62C A67G gave a self-cleavage of 0.
A30U A43G G54U A79G A136G gave a self-cleavage of 0.78.
Work on U9G U73A U132C yielded a self-cleavage of 0.88.
A31U G33U U45C U73A U134A gave a self-cleavage of 0.57.
Variant U12C U26C A67U A138G has a self-cleavage of 0.27.
U13C G60A A69U U102C A140G gave a self-cleavage of 0.02.
U47A U104G U143G gave a self-cleavage of 1.1.
For U5A U26C U45A U119C U134A A141G A142G, the self-cleavage was 0.86.
Work on U29C A42G A77C U81A yielded a self-cleavage of 2.19.
Work on U20A C116A U130C A140U yielded a self-cleavage of 0.46.
With A2G G25C U46C U87A G93U A117G the self-cleavage was 0.4.
With A67G U108C G127A the self-cleavage was 0.97.
Variant C101A A129U U134C has a self-cleavage of 1.12.
For U13C A22G U47C C123A, the self-cleavage was 1.03.
U12C U85C G89A U91A C101A gave a self-cleavage of 0.
Work on U115A U130C U132A A136U yielded a self-cleavage of 1.96.
A22G A50G U102C showed a self-cleavage of 2.42.
Work on U132C A140G C146U yielded a self-cleavage of 1.69.
For A69U A77G U119C A138G, the self-cleavage was 0.08.
In the case of U9C G55A A121G, the self-cleavage is reported as 0.7.
U9G U73A U109C U132C gave a self-cleavage of 1.36.
A42U U96A A117U gave a self-cleavage of 0.04.
With U46A A77G A138G U143C the self-cleavage was 1.84.
In the case of U20G U45C C98U, the self-cleavage is reported as 0.46.
Variant U26A C68U U102C A124U U130C has a self-cleavage of 0.11.
U20C U45A A136G showed a self-cleavage of 1.
A6G U26A A107G showed a self-cleavage of 0.53.
With U47C A67G U119A the self-cleavage was 0.72.
In the case of A50G C84U U85C, the self-cleavage is reported as 0.09.
U62C U104A U108C A141G showed a self-cleavage of 0.07.
Work on G40A U115C A117G yielded a self-cleavage of 0.4.
For U14C G33U U143A, the self-cleavage was 0.78.
A57G C128U U130G gave a self-cleavage of 0.85.
A24G U62C U81G C113U showed a self-cleavage of 0.12.
Work on U15C G60C U73C U91A yielded a self-cleavage of 0.11.
G97A A107G U109C A138G gave a self-cleavage of 0.
U26C G32U U62C gave a self-cleavage of 0.08.
Work on U15A U45C A57G A79G yielded a self-cleavage of 0.
Variant A2U A78U U104C has a self-cleavage of 1.55.
With U26C G34A U134C the self-cleavage was 1.51.
U14C A31U U62C gave a self-cleavage of 0.09.
Work on U115A U132C A140G yielded a self-cleavage of 0.57.
Variant G7A U12C G82A U102C has a self-cleavage of 2.26.
A79U U87C A141G gave a self-cleavage of 0.18.
Variant G60U C63U U81C U108C has a self-cleavage of 0.03.
Variant A24G G48A C120U has a self-cleavage of 0.93.
Variant U20A U26C U81C A136G has a self-cleavage of 2.83.
Work on A30G U39C U96A yielded a self-cleavage of 0.24.
Variant C19A A129G A142G has a self-cleavage of 0.8.
In the case of U52C U81G C131U, the self-cleavage is reported as 1.6.
A6G A67G U85A gave a self-cleavage of 0.12.
With U9C A42G G49A G55A U132C the self-cleavage was 0.14.
